From the RNAGym collection of RNA variant scans (doi:10.7554/elife.90254)
Read counts are not given, so values of variants with three or more changes are uncertain.

B1: LINE1-full (parent)
chain: UACGUAGGUGGUUUUCCCCUGAUAGUGCUAAGGGGGCCUGGAAGUUUGGACUGGGCAGAGCUCAACACAGCGUGGCAAAGUGGCUGUGGCUAGACUGCCUCUCUGGAUUCCUCGUCACUCAGCAGGGCAUCUCUGAGAGAAAUGCC

Variants of: B1
Assay: self-cleavage, relative activity (ratio to wild type); higher = more cleavage; in vitro, sequencing; the parent is a self-cleaving ribozyme

| Variant | self-cleavage |
| --- | --- |
| G75A U96C A129U A141G | 0.08 |
| U45A U115C A141G | 0.66 |
| U1A A69U U112A | 0.04 |
| A22G U26A A43G U87A A142G | 0.06 |
| U20C U52C U115A | 0.3 |
| U13C A31U A124U | 1.07 |
| U45A U85C C95U U109C | 0.07 |
| A30G A42G U47A | 0.8 |
| U26C C63U A69G A77G U109A U112A U119C | 0.29 |
| U20A U87C A129G U143A | 0.33 |
| G41A G60A A129G | 0.04 |
| U20C A107G A138G | 1.53 |
| A57G A64U U143A | 0.08 |
| A31C G32A U102C A121U A124G | 0.33 |
| U1C G11A U15A U112A | 0.52 |
| A2G U20A U62C A142G | 0.66 |
| U26C G33A G70U A92G | 0.07 |
| A69G U91C U100C | 0 |
| A2G A43G A67U U132C | 0.3 |
| A43G G58U A69G | 0.06 |
| C38G A65U A78G U96C | 0.06 |
| A24U U45C U46C U132C | 0 |
| A6G C61U U119C G137U | 0.47 |
| A57C A92U U115A U130A | 0.04 |

| Variant | self-cleavage |
| --- | --- |
| U29C G34U A141G A142G | 1.91 |
| U26G U39A G74A U115G | 0.9 |
| A57G A117U A124U | 0.79 |
| C51A A69G U100C | 0.38 |
| A64U U87G U104C G127A | 0.05 |
| U12A U46C C84U A124G A129G | 0.18 |
| A2U A50G A77U | 0.2 |
| U85C U102C A121G C123U | 0.18 |
| U14C U46G A77U | 1.09 |
| U39C A42G U46C | 1.53 |
| U20C G60A A77G | 0.1 |
| U23C U46C C118U | 1.25 |
| G54U A78G U85C A140G | 0.05 |
| A6G C61U A69U U132A | 0 |
| U26C A59G U62A A69G A94U | 0 |
| A59U A107G A124G | 1.19 |
| U45C G55A U100A U130C U143C | 0.12 |
| G44A G105A U119C A136G A138G | 2.14 |
| U81A G89C U112C | 0.1 |
| U62C U87A A92U U130C | 0.08 |
| U13C A31U C38U A79G U81A A121G A124U | 1.09 |
| U23C A107U A124U | 0.67 |
| A107U U115C A138G | 2.1 |
| A69G A78G U119A | 0 |

| Variant | self-cleavage |
| --- | --- |
| U20C U85A U104C | 0.15 |
| U52A U96C A136U | 0.46 |
| G41U U52C G105A | 0.61 |
| U9A A92U G137A | 0.18 |
| U12C U85C G86A A136U | 0.06 |
| U39C G41U C51U | 1.04 |
| U9C U14A C95U A117U U134C | 0.17 |
| U12A U23C C38G A64G C76U A92G A94G U134C | 0 |
| U9C U46C A138G | 1.45 |
| G53A A65G U73A U96C | 0.06 |
| G41A A78G U96G U119C | 0.07 |
| A50G U73A U96C A138U A140G | 0.34 |
| G4C U45C A136G A141U | 0.41 |
| A69G U96C U115C A140G | 0 |
| U96C U115A A124G U130C A142G | 0.68 |
| U29C U52C A107G | 1.84 |
| G36A U115C U130A | 1.57 |
| U14A C17U C38U A43G A78G C84U | 0.17 |
| U1C U45A U102C | 1.23 |
| U29C U46C C113G U130C | 1.84 |
| G35A G122A A124U | 1.27 |
| A42G U62C U102C | 0 |
| U100C C116U A136G | 1.71 |
| U87A C95U A124G | 0.04 |

| Variant | self-cleavage |
| --- | --- |
| A67U C90G U96C | 0.07 |
| U26A A117U U119C A124G A142G | 1.07 |
| U12C U15G U119C | 1.67 |
| U20C U45G A67U | 0.15 |
| A22G U87A U91A U112C A121G | 0.39 |
| A2G A79G U115A | 0.54 |
| U15A A65G U96C | 0.4 |
| U9A A64G A79G U100C A121U | 0.51 |
| A50G U108A A121C | 1.19 |
| U73C U91A U96A U100C U104C A121U U143A | 0 |
| U13C A69G G106A | 0.44 |
| A92U A117G U119C | 0 |
| U85C U112C G114A U119C | 0.11 |
| U52C U104C U108A G114A | 0.54 |
| U15C U62C U115A C120U | 0.13 |
| U5A A77G A136G | 1.72 |
| U12C U62C A69G A92G | 1.31 |
| C19U U62C U119C | 0.02 |
| U1A A78G U134C | 0 |
| C38A U47C U115C | 1.87 |
| U46A G60A U100C | 0.03 |
| U39C A117G A140G | 1.02 |
| A30G U85C A124C | 2.16 |
| U13A U62A A138G | 0.02 |

| Variant | self-cleavage |
| --- | --- |
| U9A U45G U132C A136G | 1.15 |
| A22G U23A U115C A141G | 1.9 |
| A42G U62C A79G | 0 |
| U26C A124G U130C | 1.15 |
| C16A U96A C120U C128U | 0.09 |
| A22G U62A C123U U143A | 0.05 |
| U12C A22G U73C A136G A140G | 0 |
| G4A U12C A92U | 0.41 |
| G11A G54C A64U | 0.24 |
| U62A U87C U134C | 0 |
| G74A U91C A94G C95G | 0.05 |
| U29C U104A A142G | 1.32 |
| U23A U26A A142G | 0.88 |
| A6G A67G A77U | 0.31 |
| U14C A77U G88U C103U A124G A140G | 0.15 |
| U20A U26A A92G U96C G105A A107U U115C | 0 |
| U9A A79G A140G U143C | 0.66 |
| U13C U85A A92G A124G G126A | 0.08 |
| U9C A78U G83A | 1.5 |
| U13C U73A U100C | 2.21 |
| U14A A77U U100C | 1.41 |
| U13C A43G A136U A140G | 0.32 |
| U12C G34C U47G | 1.47 |
| U12C A57G A77G U130G | 0 |

| Variant | self-cleavage |
| --- | --- |
| U45C C68U U130C | 0.27 |
| U14C U26C A69G A107U U112A G125A | 0 |
| A92G U102C U119A | 0 |
| A67U U100A A141G | 0 |
| U104C C133G A136G | 1.87 |
| G93A C131U A136G A140G C145U | 0 |
| C61U A117G G125A C133U | 0.01 |
| U13C U73G A140G | 0 |
| U15C G21A U112C | 1.22 |
| G97A U100C U134C | 0.21 |
| A30U A67U U115C | 0.18 |
| U20C U73A U115C | 1.38 |
| G32A U39A U52C U100C U109C | 1.15 |
| U15C U26A U112C U130C | 1.31 |
| A43G G55A A77G | 0.1 |
| G27A A59G U102C G126A | 0 |
| U26C A79U U108C A129G | 1.67 |
| U13C A50U U87A U115G A141G | 0.14 |
| U96G C98A U109C | 0.16 |
| U52C A79G U87G A117G | 0 |
| U13C A22G A59U U112C | 0.46 |
| A79U U109C U115A A141G | 2.18 |
| U15C A117U A129G | 2.76 |
| U39A A129G U134C G135A | 1.37 |

| Variant | self-cleavage |
| --- | --- |
| G4A A77G A142G U143C | 1.25 |
| U13C A42G U132C | 0.66 |
| G4A U14C G21A | 0.31 |
| G75U G82U U104C A129G | 0.71 |
| A42G U119A U134C | 1.21 |
| A2G U87C U115C A136G | 0.77 |
| U13C A30G A77U A107G | 1.39 |
| U9C G34U A117G | 1.61 |
| G35A A59U U108C A129G A141G | 1.02 |
| U5C A30G A121U | 0.98 |
| U20C U29C A136G | 1.84 |
| U20C U102C A107U A140G U143A | 1.53 |
| G32A A50G A65G A79G | 0 |
| A22G G58A A94U U134A | 0.02 |
| U9C G36U A129U A138G | 1.61 |
| U1C U13C A77U | 0.97 |
| G36U U73A U115C A136G | 1.93 |
| G7C G21A U104C A136G | 1.27 |
| U73C U87C A129U C131U | 0.21 |
| U1C U23A A24G G105A | 1.15 |
| U12C A42G A67G U143A | 0 |
| A64U U119C G122U | 0.49 |
| C37U U81A U102C U119A | 2.12 |
